# Over roughly 33,000 sequences, “E-score (-0.5 to 0.5)” has its median near -0.012; the highest 2% begin near 0.27. This is one part of the list.
# Biological target: T1, Vhr1 (UniProt P40522)
# T1 sequence: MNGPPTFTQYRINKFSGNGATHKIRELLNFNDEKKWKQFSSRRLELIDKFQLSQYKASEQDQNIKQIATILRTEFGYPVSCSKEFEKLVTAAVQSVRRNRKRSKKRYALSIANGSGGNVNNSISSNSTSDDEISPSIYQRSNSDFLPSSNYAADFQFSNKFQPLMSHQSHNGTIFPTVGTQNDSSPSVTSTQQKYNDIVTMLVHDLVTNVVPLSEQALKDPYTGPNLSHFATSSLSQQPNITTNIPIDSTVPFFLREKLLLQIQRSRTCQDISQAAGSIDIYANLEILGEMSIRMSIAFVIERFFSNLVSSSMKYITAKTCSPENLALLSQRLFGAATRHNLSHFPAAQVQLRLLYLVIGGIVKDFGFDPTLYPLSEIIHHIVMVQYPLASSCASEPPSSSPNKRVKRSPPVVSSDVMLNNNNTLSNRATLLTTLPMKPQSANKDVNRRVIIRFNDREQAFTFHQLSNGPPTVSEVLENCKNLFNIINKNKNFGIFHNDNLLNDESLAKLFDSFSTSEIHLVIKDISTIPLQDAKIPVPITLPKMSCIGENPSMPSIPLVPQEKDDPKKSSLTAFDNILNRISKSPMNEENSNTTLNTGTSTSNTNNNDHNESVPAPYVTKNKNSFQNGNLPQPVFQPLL
# Assay: PBM E-score (8-mer binding enrichment) (E-score (-0.5 to 0.5)); higher = stronger / more preferred TF binding; most listed sequences are background and not binding sites
# Details: protein concentration: 200 nM; construct: GST-full length
# Summary of the method: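 Yeast transcription factors, full-length or as DNA-binding domains, were expressed with a GST tag using PURExpress in vitro transcription/translation. At about 100-200 nM they were applied to universal all-10-mer Agilent arrays, double-stranded by primer extension on fresh or once-stripped slides. Fluorescent anti-GST detected bound protein, and masliner normalised the scans. E-scores for ungapped eight-base words, pooled with reverse complements, came from the Universal PBM Analysis Suite.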
row,Sequence,PBM E-score
1,ATCGTGAA,-0.112
2,ACGGTATC,0.108
3,CCGATAGA,-0.121
4,CCTTTAGA,-0.269
5,CAACAACG,0.087
6,CATCATAA,0.133
7,AACGGCCC,-0.027
8,CCAGAAAA,-0.0398
9,CTAATGAC,-0.00978
10,CCGTGGTA,0.0539
11,GCGGTACC,0.0294
12,GTCGTGAA,-0.256
13,TGCCAGCA,-0.0298
14,TCACAGCA,0.207
15,GAATTAGC,-0.188
16,GAGATCAC,0.0658
17,AGAAGTAC,-0.192
18,AAAGTAAT,0.129
19,AACACACA,0.33
20,TGCGCAAA,-0.141
21,AACGGCGG,0.00313
22,CAACAGGG,0.0797
23,AGCGACCG,-0.107
24,ACCTCCGC,0.134
25,CAGACCAA,0.0253

row,Sequence,PBM E-score
1,CAAGGTTA,-0.175
2,AATAATTG,0.0205
3,CAAGCACA,-0.00197
4,CTTGTTCA,-0.144
5,ATAACGAA,0.0305
6,CCGTACGG,-0.385
7,AAAGTATA,-0.0402
8,ACAGTGGG,-0.133
9,CAAGCAAC,-0.035
10,ACCGAAGA,-0.0336
11,CTCGGCAA,-0.0876
12,AATTCTAG,-0.0244
13,ATTGGCTA,-0.0602
14,GTAACGTA,-0.0191
15,CTTTATCC,-0.245
16,AGTTTAGA,-0.129
17,AAACACGT,0.0232
18,AGGTGGAA,0.0199
19,CCTATAAG,-0.0556
20,ACAAGTCG,-0.0907
21,ACAGATCC,0.0599
22,AATCAATT,0.0578
23,AGGATACC,0.0279
24,AGGCACTA,-0.0871
25,AGCTAGCG,-0.23

row,Sequence,PBM E-score
1,ATACGTCC,-0.149
2,CATTTCTA,-0.233
3,AGAGTTGA,-0.032
4,AGATTTCG,-0.0515
5,TGTACCAA,0.0576
6,ACCGGCCG,0.0877
7,GAACCCAC,0.236
8,GACGGGAA,-0.0963
9,GAAGTCCC,-0.237
10,ATGATACG,0.228
11,CTCTGGCC,-0.0748
12,GTGACCAA,0.109
13,AGGGTGAC,0.2
14,GACCTTAA,-0.232
15,CTATATCC,-0.00727
16,ATATCCTC,0.0521
17,CGACATTC,0.0738
18,AGAGTACT,0.0467
19,CAACTTGG,0.0538
20,AGGGTGAG,0.0893
21,CCATGACA,0.115
22,CTGCTGGA,-0.027
23,ATAAACTC,0.0222
24,ACCTATTA,-0.0246
25,ACAAGCCA,0.0302

row,Sequence,PBM E-score
1,CAGTATCG,0.0981
2,ATTCATAA,0.0567
3,CCGCACAG,0.0492
4,CGGCAAGC,-0.173
5,CCCTGGCG,-0.0364
6,CTCGTGCC,-0.0421
7,AGGCAATG,0.0629
8,CCCCCTGC,-0.163
9,AGTCCTGC,0.0877
10,CTGAGCAC,0.0507
11,AAGGGGTC,-0.231
12,GCAGACGC,0.0308
13,GAGGTACA,-0.00768
14,CTCGTCGA,-0.0786
15,GCCTCCCC,0.0909
16,AACTGAAT,0.00051
17,CTATTCGC,0.0141
18,GTAATCAA,0.184
19,AACTATCT,0.0639
20,CGATGCTA,-0.0631
21,CATGACAC,0.239
22,CCAACATA,0.214
23,CAAGTCTG,-0.0798
24,CCCTAAGC,-0.218
25,CGTGCGCA,-0.034

row,Sequence,PBM E-score
1,CAGGGTGA,0.114
2,AGTCGCTC,0.237
3,CAGCATTC,-0.0944
4,ATCTGAAC,-0.131
5,ACTTCTGG,-0.04
6,ACTTTGTG,0.139
7,GTTACATA,0.0716
8,ACCAAATA,0.197
9,CGCCACGA,-0.0781
10,GCCTGCAC,-0.0376
11,ACGCGGGA,-0.0173
12,CGTCTACA,-0.157
13,AACGGATG,0.132
14,GTTCGGTA,0.106
15,TGGCCGAA,-0.0892
16,CTCTCATA,0.00607
17,AGGCAGCA,-0.0663
18,AAGGTGAT,0.101
19,CGTGCCAG,-0.244
20,AATATAAT,-0.0316
21,CCGACGAC,0.127
22,ACCACAAA,0.0812
23,CCTTAGAC,-0.16
24,CTCCATTA,-0.0602
25,CCTACGCA,-0.0675

row,Sequence,PBM E-score
1,GCCATCAA,-0.189
2,CGTCTTCC,0.0433
3,TAACTTGA,-0.0113
4,AGCCTACT,-0.0677
5,ATCGTCCC,-0.00307
6,AACCTCGC,0.0241
7,CCCTCCAG,-0.0286
8,GACCGAGA,-0.0366
9,GTTGCCGA,-0.0824
10,AAGCGTCG,-0.212
11,AGATGACT,0.435
12,AATATTCG,0.0181
13,AGGCCTCG,-0.161
14,GCAAACGC,-0.0769
15,GACGTGCA,-0.137
16,CCCTACCC,-0.0329
17,TAGTAGGA,0.103
18,ACTAACAA,0.212
19,TCCAACAA,-0.095
20,GACGTATC,-0.164
21,CAATCTCG,0.0151
22,AAGGACGA,-0.186
23,ATGCTCCA,0.0701
24,GAATTCGC,0.106
25,AAAAGAGG,-0.134

row,Sequence,PBM E-score
1,CGACGCCG,0.2
2,GCTTTGAC,-0.0693
3,ACCGGGCC,0.00306
4,ACCGACAC,0.151
5,AGGTATAC,0.177
6,ACACCGTA,0.0319
7,ACTTCGCA,-0.113
8,CCTCATCC,-0.182
9,CAGGTAGC,0.0398
10,TAATTGTA,0.164
11,AGAACCTC,-0.217
12,CTGGGGAA,-0.136
13,ATCATCAC,0.197
14,CCGTAGCG,-0.291
15,TCTCAGAA,-0.137
16,CAATGCGC,0.0302
17,TGGGAAAA,-0.242
18,AAGCATTA,-0.115
19,AATATTGA,0.102
20,TCAAGTGA,-0.0308
21,CTACGGGC,-0.306
22,CAATATAG,0.179
23,CTGCACTA,-0.00552
24,AGGCATAA,-0.201
25,GTGCACAA,-0.125

row,Sequence,PBM E-score
1,ATTGTCTG,0.14
2,ATGGTCGG,0.0765
3,AGTACCGC,0.0571
4,CAGAAAGC,-0.0861
5,AAGTCCGT,-0.36
6,GGTTTAAA,-0.0589
7,ACGTCGAA,0.0232
8,CCGACCAC,0.22
9,ACTAGGAC,-0.138
10,AACTCTGA,0.0902
11,AGATCTTG,-0.0126
12,AACCAGAA,0.0466
13,GAAAGTGA,-0.0491
14,CTGAATTA,-0.00808
15,CTGCTAGC,-0.265
16,AAATTACT,-0.179
17,AGCGCAAT,-0.0761
18,ACTTTTAT,-0.304
19,AATAAGAT,-0.143
20,TAGCGTGA,0.00946
21,TGGGTACA,0.177
22,ATCATTTG,0.125
23,GGGTAATA,0.228
24,CGATACGA,-0.0911
25,CAGCAAAC,0.107

row,Sequence,PBM E-score
1,CCCTACTA,-0.158
2,GATATGTA,0.154
3,CATTGAAG,-0.159
4,TTAGCGAA,-0.208
5,CGGCTCGC,0.0809
6,CAATTCCA,-0.0605
7,CGTTATGC,-0.199
8,CTTACTGA,-0.228
9,ATCTACAC,0.161
10,CCCGATAG,-0.0297
11,ACTTTGTA,0.0254
12,CGGCCTAC,0.0415
13,GAAGTAGA,-0.0945
14,ACAAGCAT,0.214
15,ATGCTGAC,0.206
16,CGATGCTC,0.0625
17,TCACTGCA,0.208
18,TAAACGGA,-0.0637
19,AGCCACAG,-0.233

# — the supplement of paper PMC3334620
